In paper PMC4336329 (PLoS ONE, 2015):
In all, about 310,000 compounds went through this assay and about 14,000 (4.5%) showed an effect of 50% or more. The effect is printed as a negative number. The list shows a part of the results.

Biological target: human ether-à-go-go-related gene (hERG) potassium channel (human, UniProt Q12809)
Assay: primary screen, population patch clamp on CHO cells stably expressing hERG
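Note: peak tail current of the secondary pulse compared with the same well before compound.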

human ether-à-go-go-related gene (hERG) potassium channel, sequence (Q12809 whole entry, looked up): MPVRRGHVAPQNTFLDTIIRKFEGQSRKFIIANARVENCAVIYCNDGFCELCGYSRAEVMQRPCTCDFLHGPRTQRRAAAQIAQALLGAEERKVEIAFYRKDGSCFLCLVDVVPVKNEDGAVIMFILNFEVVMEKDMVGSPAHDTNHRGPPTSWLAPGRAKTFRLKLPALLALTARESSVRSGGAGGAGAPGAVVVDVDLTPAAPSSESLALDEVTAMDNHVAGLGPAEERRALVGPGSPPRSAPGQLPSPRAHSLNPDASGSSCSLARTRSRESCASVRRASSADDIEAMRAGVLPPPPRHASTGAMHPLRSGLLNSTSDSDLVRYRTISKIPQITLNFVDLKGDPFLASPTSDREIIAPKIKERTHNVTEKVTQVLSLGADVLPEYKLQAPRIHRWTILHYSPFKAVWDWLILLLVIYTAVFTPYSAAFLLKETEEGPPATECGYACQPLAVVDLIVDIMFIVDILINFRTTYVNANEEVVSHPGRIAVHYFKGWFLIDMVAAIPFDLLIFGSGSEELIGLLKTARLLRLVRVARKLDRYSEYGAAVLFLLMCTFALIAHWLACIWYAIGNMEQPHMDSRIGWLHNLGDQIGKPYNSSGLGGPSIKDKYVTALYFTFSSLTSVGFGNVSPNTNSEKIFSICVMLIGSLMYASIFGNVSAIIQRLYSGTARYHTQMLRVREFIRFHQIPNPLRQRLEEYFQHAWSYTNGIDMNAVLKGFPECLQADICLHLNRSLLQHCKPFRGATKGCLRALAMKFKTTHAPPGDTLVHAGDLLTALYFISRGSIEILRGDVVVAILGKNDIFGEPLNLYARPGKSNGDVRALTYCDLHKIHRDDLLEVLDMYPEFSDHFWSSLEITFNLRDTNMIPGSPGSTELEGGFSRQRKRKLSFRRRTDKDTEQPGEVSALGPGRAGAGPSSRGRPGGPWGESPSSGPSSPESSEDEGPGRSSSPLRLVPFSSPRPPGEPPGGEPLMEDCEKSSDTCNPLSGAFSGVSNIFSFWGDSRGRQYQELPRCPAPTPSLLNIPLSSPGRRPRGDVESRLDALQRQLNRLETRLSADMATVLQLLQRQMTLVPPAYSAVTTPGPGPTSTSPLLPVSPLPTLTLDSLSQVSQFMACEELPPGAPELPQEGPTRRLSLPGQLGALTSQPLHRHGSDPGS

| SMILES | hERG current change (%, negative = inhibition) at 10uM [%] |
| --- | --- |
| COc1ccc(C(=O)COC(=O)CNC(=O)c2ccccc2)cc1F | -26.5 |
| COc1ccc(C(C)NC(=O)c2ccc([N+](=O)[O-])cc2)cc1OC (stereo not shown) | -38.2 |
| O=C(Cn1ncc2c(=O)oc3ccccc3c21)N1CCC(N2CCCCC2)CC1 | -5 |
| Cc1ccccc1NC(=O)Cc1cccc(C(F)(F)F)c1 | 0.766 |
| NC(=O)C1CCC(NC(=O)OCc2ccccc2)CC1 (stereo not shown) | 9.94 |
| CCNC(=S)N/N=C/c1ccc(C#N)cc1 | 8.67 |
| C=CCn1c(SCC(=O)NCCC2=CCCCC2)nc2ccc(Cl)cc2c1=O | 6.97 |
| COc1ccc(Oc2cc(C)c3ccccc3n2)cc1 | -0.541 |
| CC(=O)OC1N=C(c2ccccc2)c2cc(Br)ccc2NC1=O (stereo not shown) | -10.2 |
| CC(NC(=O)CNC(=O)c1ccc2c(c1)OCO2)c1ccc(S(N)(=O)=O)cc1 (stereo not shown) | 0.985 |
| Cc1ccccc1-n1nc2c(c1NC(=O)/C=C\c1ccc3c(c1)OCO3)CSC2 | 5.74 |
| COc1cc(-c2c(C#N)c(N)nc3[nH]c(=S)[nH]c(=O)c23)ccc1O | 26.7 |
| Cc1ccc(SCC(=O)Nc2ccc3c(c2)OCCO3)cc1 | -15.6 |
| COc1ccc(/C=C/C(=O)C2(O)CCCCC2)cc1OC | 4.84 |
| COCCN1CC(CNC(=O)c2cc(COc3ccc(C)c(C)c3)on2)CC1=O (stereo not shown) | -20.8 |
| Cc1cccc(C(=O)NCC(=O)NCC(c2ccco2)N2CCCCC2)c1 (stereo not shown) | -11.3 |
| CCN(CC(=O)Nc1ccc(NC(C)=O)cc1)C(=O)c1oc2ccccc2c1C | -20.2 |
| Cn1c(=O)c2c(nc(N3CCNCC3)n2Cc2cccc3ccccc23)n(C)c1=O | -0.661 |
| COC(=O)c1ccc(OC)c(CN2CCCN(Cc3cc(C)ccc3C)S2(=O)=O)c1 | 4.84 |
| CCCCNC(=O)c1cc2c(C)cc(C)cc2[nH]1 | 13.6 |

| SMILES | hERG current change (%, negative = inhibition) at 10uM [%] |
| --- | --- |
| CCC(C)(C(=O)NC1CCCCC1)N(CC1CCCO1)C(=O)CNC(=O)c1ccccc1 (stereo not shown) | 6.13 |
| Cc1[nH]c(=O)[nH]c(=O)c1NC(=O)CSc1ncccc1-c1nc2ccccc2[nH]1 | 6.95 |
| O=[N+]([O-])c1cccc2c1ccc1ncccc12 | 10.6 |
| COc1cc(C(=O)NNC(=O)c2ccc3ccccc3n2)cc(OC)c1OC | 10.5 |
| COc1cccc(-c2noc(CCCC(=O)Nc3ccc(C(N)=O)cc3)n2)c1 | 7.66 |
| CCn1c(CNC(C)=O)nnc1SCC(=O)c1ccc(Br)cc1 | 0.552 |
| Cc1nc2ccccc2c(=O)n1-c1ccccc1C(F)(F)F | -0.613 |
| COc1cc(OC)cc(C(=O)N2CCN(C(=O)Cc3ccccc3)CC2)c1 | 2.65 |
| CCOC(=O)c1c(C)[nH]c(C)c1C(=O)COC(=O)c1cccnc1SC | -31.8 |
| Cc1ccc(S(=O)(=O)Nc2ccc(S(=O)(=O)NC(C)(C)C)cc2)cc1 | -18.5 |
| CCCC(=O)NC(=S)Nc1cccc(C(C)=O)c1 | 1.17 |
| O=C(O)C(Cc1ccccc1)N1C(=O)/C(=C/c2ccccc2)SC1=S (stereo not shown) | -0.221 |
| O=C(Cc1ccc(Cl)cc1)Nc1ccncc1 | 11.8 |
| Cc1c(CN2CCC(C(=O)Nc3cccc(-c4cccc(Cl)c4)c3)CC2)cnn1C | -61.4 |
| Brc1cccc(OCCn2ccnc2)c1.O=C(O)C(=O)O | -6.17 |
| CCC(C)c1ccc(NC(=S)NN2CCOCC2)cc1 (stereo not shown) | -8.96 |
| CS(=O)(=O)N1CCC(Oc2ccccc2C(=O)NC2CCOC2)CC1 (stereo not shown) | 41.8 |
| O=C1CC(N2CCN(CCc3ccccn3)CC2)C(=O)N1c1ccc(Cl)cc1 (stereo not shown) | -67.4 |
| CSc1ccc(CN(C)CC(=O)NCc2ccccc2)cc1 | -52.5 |
| CCC(CC)c1nnc(NC(=O)CCc2ccccc2)s1 | -3.19 |

| SMILES | hERG current change (%, negative = inhibition) at 10uM [%] |
| --- | --- |
| O=C(c1cnccn1)N(Cc1cccs1)C1(C(=O)NC2CCCC2)CCCCC1 | -10.5 |
| N#CC(C#N)=CC1=C2OC(c3ccccc3)=CC(c3ccccc3)=C2CCC1 | 15 |
| CN(C)c1ccc(C2N(C(=O)N3CCOCC3)CCN2S(=O)(=O)c2ccccc2)cc1 (stereo not shown) | 3.98 |
| CC(C)(C)NC(=S)NCc1ccco1 | 8.96 |
| Cc1nc2ccc(NS(=O)(=O)c3ccc(F)cc3)cc2s1 | 34.6 |
| Cc1cccc(C)c1N(CC(=O)NCc1ccccc1)C(=O)c1csnn1 | 6.44 |
| Cc1ccc(NC(=O)C2CCCCC2C(=O)O)cc1C (stereo not shown) | -0.85 |
| Nc1nc(COc2ccccc2)cs1 | 3.89 |
| Cc1cccc(-n2c(CCc3ccccc3)nnc2SCC(=O)c2ccccc2)c1 | -32.6 |
| Cc1ccc(C)c(OCCn2c(=O)c3c(ncn3C3CCCC3)n(Cc3ccccc3)c2=O)c1 | 2.53 |
| c1ccc(-c2cc(-c3ccccc3)ncn2)cc1 | 0.468 |
| CC1CC(=O)N(CC(=O)NC2CCCCC2)c2ccccc2S1 (stereo not shown) | -3.23 |
| CCOc1cccc(-c2c(C(=O)N/N=C(\C)c3ccncc3)nnn2-c2nonc2N)c1 | -43.6 |
| CCOC(=O)c1cc(-c2ccc(OC(F)F)cc2)nc2nc(SC)[nH]c(=O)c12 | -42.7 |
| CCOc1cc(/C=C/C(=O)OCC(=O)NCCN2C(=O)CSC2=O)ccc1OCC(C)C | -2.31 |
| C/C(=N\NC(=O)c1ccc(Cl)cc1)c1cccnc1 | 12.3 |
| COC(=O)CCNc1ccc2c(c1)OCCO2 | 9.42 |
| CCOC(=O)CCc1c(C)c(C#N)c2nc3ccccc3n2c1-n1cnc2ccccc21 | -2.88 |
